# Test results reported in the supplement of paper PMC8728848.
# The other results are listed elsewhere or left out.
# What was measured:
# Test in all cases: glycan array binding signal (z-score within array); higher = stronger binding
# Conditions in all cases: glycan notation: IUPAC condensed, linker removed
# [1] = target: GlcNAc(b1-4)GlcNAc(b1-4)GlcNAc(b1-4)GlcNAc(b1-4)GlcNAc(b1-4)GlcNAc
# Summary of the method: (§1)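 The Consortium for Functional Glycomics database supplied 3228 glycan arrays, of which those lacking an available protein sequence were dropped. The binding signal, a within-array Z-score, was averaged across arrays of the same protein sequence and across linkers. Negative scores can be read as non-binding.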
# [2] = target: GlcNAc(b1-4)[GlcNAc(b1-6)]GalNAc
# Summary of the method: as §1
# [3] = target: GlcNAc(b1-6)Gal(b1-4)GlcNAc
# Summary of the method: as §1
# GlcNAc(b1-6)GalNAc = target: GlcNAc(b1-6)GalNAc
# Summary of the method: as §1
# [4] = target: GlcNAc6S(b1-3)Gal(b1-4)GlcNAc
# Summary of the method: as §1
# Kdn(a2-3)Gal(b1-3)GalNAc = target: Kdn(a2-3)Gal(b1-3)GalNAc
# Summary of the method: as §1
# Kdn(a2-3)Gal(b1-3)GlcNAc = target: Kdn(a2-3)Gal(b1-3)GlcNAc
# Summary of the method: as §1
# Kdn(a2-3)Gal(b1-4)Glc = target: Kdn(a2-3)Gal(b1-4)Glc
# Summary of the method: as §1
# Kdn(a2-3)Gal(b1-4)GlcNAc = target: Kdn(a2-3)Gal(b1-4)GlcNAc
# Summary of the method: as §1
# [5] = target: Kdn(a2-3)Gal(b1-4)[Fuc(a1-3)]GlcNAc
# Summary of the method: as §1
# Kdn(a2-6)Gal(b1-4)GlcNAc = target: Kdn(a2-6)Gal(b1-4)GlcNAc
# Summary of the method: as §1
# [6] = target: Man(a1-2)Man(a1-2)Man(a1-3)Man
# Summary of the method: as §1
# [7] = target: Man(a1-2)Man(a1-2)Man(a1-6)[Man(a1-3)]Man
# Summary of the method: as §1
# Man(a1-2)Man(a1-3)Man = target: Man(a1-2)Man(a1-3)Man
# Summary of the method: as §1
# [8] = target: Man(a1-2)Man(a1-3)[Man(a1-2)Man(a1-6)]Man
# Summary of the method: as §1
# [9] = target: Man(a1-2)Man(a1-3)[Man(a1-2)Man(a1-6)]Man(a1-6)[Man(a1-2)Man(a1-2)Man(a1-3)]Man
# Summary of the method: as §1
# [10] = target: Man(a1-2)Man(a1-3)[Man(a1-2)Man(a1-6)]Man(a1-6)[Man(a1-2)Man(a1-2)Man(a1-3)]Man(b1-4)GlcNAc(b1-4)GlcNAc
# Summary of the method: as §1
# [11] = target: Man(a1-2)Man(a1-3)[Man(a1-6)]Man(a1-6)[Man(a1-2)Man(a1-3)]Man(b1-4)GlcNAc(b1-4)GlcNAc
# Summary of the method: as §1
# [12] = target: Man(a1-2)Man(a1-6)[Man(a1-3)]Man(a1-6)[Man(a1-2)Man(a1-2)Man(a1-3)]Man
# Summary of the method: as §1
# [13] = target: Man(a1-2)Man(a1-6)[Man(a1-3)]Man(a1-6)[Man(a1-2)Man(a1-2)Man(a1-3)]Man(b1-4)GlcNAc(b1-4)GlcNAc
# Summary of the method: as §1
# Man(a1-3)[Man(a1-6)]Man = target: Man(a1-3)[Man(a1-6)]Man
# Summary of the method: as §1
# [14] = target: Man(a1-3)[Man(a1-6)]Man(a1-6)[Man(a1-2)Man(a1-3)]Man(b1-4)GlcNAc(b1-4)GlcNAc
# Summary of the method: as §1
# [15] = target: Man(a1-3)[Man(a1-6)]Man(a1-6)[Man(a1-3)]Man
# Summary of the method: as §1
# [16] = target: Man(a1-3)[Man(a1-6)]Man(a1-6)[Man(a1-3)]Man(b1-4)GlcNAc(b1-4)GlcNAc
# Summary of the method: as §1
# [17] = target: Man(a1-3)[Man(a1-6)]Man(b1-4)GlcNAc(b1-4)GlcNAc
# Summary of the method: as §1
# [18] = target: Man(a1-3)[Man(a1-6)]Man(b1-4)GlcNAc(b1-4)[Fuc(a1-6)]GlcNAc
# Summary of the method: as §1
# Man(a1-6)Man = target: Man(a1-6)Man
# Summary of the method: as §1
# Man(b1-4)GlcNAc = target: Man(b1-4)GlcNAc
# Summary of the method: as §1
# MurNAc(b1-4)GlcNAc = target: MurNAc(b1-4)GlcNAc
# Summary of the method: as §1
# Neu5Ac(a2-3)Gal = target: Neu5Ac(a2-3)Gal
# Summary of the method: as §1
# [19] = target: Neu5Ac(a2-3)Gal(b1-3)GalNAc
# Summary of the method: as §1
# [20] = target: Neu5Ac(a2-3)Gal(b1-3)GalNAc(b1-3)Gal(a1-4)Gal(b1-4)Glc
# Summary of the method: as §1
# [21] = target: Neu5Ac(a2-3)Gal(b1-3)GalNAc(b1-4)[Neu5Ac(a2-3)]Gal(b1-4)Glc
# Summary of the method: as §1
# [22] = target: Neu5Ac(a2-3)Gal(b1-3)GalNAc(b1-4)[Neu5Ac(a2-8)Neu5Ac(a2-3)]Gal(b1-4)Glc
# Summary of the method: as §1
# [23] = target: Neu5Ac(a2-3)Gal(b1-3)GalNAc6S
# Summary of the method: as §1
# [24] = target: Neu5Ac(a2-3)Gal(b1-3)GlcNAc
# Summary of the method: as §1
# [25] = target: Neu5Ac(a2-3)Gal(b1-3)GlcNAc(b1-2)Man
# Summary of the method: as §1
# [26] = target: Neu5Ac(a2-3)Gal(b1-3)GlcNAc(b1-2)Man(a1-3)[GlcNAc(b1-4)][Neu5Ac(a2-3)Gal(b1-3)GlcNAc(b1-2)Man(a1-6)]Man(b1-4)GlcNAc(b1-4)GlcNAc
# Summary of the method: as §1
# [27] = target: Neu5Ac(a2-3)Gal(b1-3)GlcNAc(b1-2)Man(a1-3)[Neu5Ac(a2-3)Gal(b1-3)GlcNAc(b1-2)Man(a1-6)]Man(b1-4)GlcNAc(b1-4)GlcNAc
# Summary of the method: as §1
# [28] = target: Neu5Ac(a2-3)Gal(b1-3)GlcNAc(b1-3)Gal(b1-3)GlcNAc
# Summary of the method: as §1
# [29] = target: Neu5Ac(a2-3)Gal(b1-3)GlcNAc(b1-3)Gal(b1-4)GlcNAc
# Summary of the method: as §1
# [30] = target: Neu5Ac(a2-3)Gal(b1-3)GlcNAc(b1-3)GalNAc
# Summary of the method: as §1
# [31] = target: Neu5Ac(a2-3)Gal(b1-3)GlcNAc(b1-4)Gal(b1-4)Glc
# Summary of the method: as §1
# [32] = target: Neu5Ac(a2-3)Gal(b1-3)GlcNAc(b1-6)GalNAc
# Summary of the method: as §1
# [33] = target: Neu5Ac(a2-3)Gal(b1-3)GlcNAc6S
# Summary of the method: as §1
binder,measurement,setting,value
SBD-G4S3-SBD (protein) MASIPSSASVQLDSYNYDGSTFSGKIYVKNIAYSKKVTVVYADGSDNWNNNGNIIAASFSGPISGSNYEYWTFSASVKGIKEFYIKYEVSGKTYYDNNNSANYQVSTGGGGSGGGGSGGGGSEFASIPSSASVQLDSYNYDGSTFSGKIYVKNIAYSKKVTVVYADGSDNWNNNGNIIAASFSGPISGSNYEYWTFSASVKGIKEFYIKYEVSGKTYYDNNNSANYQVST,glycan array binding signal (z-score),[1],-0.364
same,glycan array binding signal (z-score),[2],-0.397
same,glycan array binding signal (z-score),[3],-0.409
same,glycan array binding signal (z-score),GlcNAc(b1-6)GalNAc,-0.075
same,glycan array binding signal (z-score),[4],-0.111
same,glycan array binding signal (z-score),Kdn(a2-3)Gal(b1-3)GalNAc,-0.316
same,glycan array binding signal (z-score),Kdn(a2-3)Gal(b1-3)GlcNAc,-0.41
same,glycan array binding signal (z-score),Kdn(a2-3)Gal(b1-4)Glc,-0.276
same,glycan array binding signal (z-score),Kdn(a2-3)Gal(b1-4)GlcNAc,-0.416
same,glycan array binding signal (z-score),[5],-0.296
same,glycan array binding signal (z-score),Kdn(a2-6)Gal(b1-4)GlcNAc,-0.365
same,glycan array binding signal (z-score),[6],-0.248
same,glycan array binding signal (z-score),[7],-0.367
same,glycan array binding signal (z-score),Man(a1-2)Man(a1-3)Man,-0.402
same,glycan array binding signal (z-score),[8],-0.315
same,glycan array binding signal (z-score),[9],-0.42
same,glycan array binding signal (z-score),[10],-0.217
same,glycan array binding signal (z-score),[11],-0.247
same,glycan array binding signal (z-score),[12],-0.369
same,glycan array binding signal (z-score),[13],-0.374
same,glycan array binding signal (z-score),Man(a1-3)[Man(a1-6)]Man,-0.355
same,glycan array binding signal (z-score),[14],-0.04
same,glycan array binding signal (z-score),[15],-0.125
same,glycan array binding signal (z-score),[16],-0.351
same,glycan array binding signal (z-score),[17],-0.371
same,glycan array binding signal (z-score),[18],-0.323
same,glycan array binding signal (z-score),Man(a1-6)Man,0.697
same,glycan array binding signal (z-score),Man(b1-4)GlcNAc,-0.315
same,glycan array binding signal (z-score),MurNAc(b1-4)GlcNAc,-0.374
same,glycan array binding signal (z-score),Neu5Ac(a2-3)Gal,-0.394
same,glycan array binding signal (z-score),[19],-0.369
same,glycan array binding signal (z-score),[20],-0.32
same,glycan array binding signal (z-score),[21],-0.403
same,glycan array binding signal (z-score),[22],-0.376
same,glycan array binding signal (z-score),[23],-0.397
same,glycan array binding signal (z-score),[24],-0.372
same,glycan array binding signal (z-score),[25],-0.183
same,glycan array binding signal (z-score),[26],-0.25
same,glycan array binding signal (z-score),[27],-0.305
same,glycan array binding signal (z-score),[28],-0.395
same,glycan array binding signal (z-score),[29],-0.377
same,glycan array binding signal (z-score),[30],-0.432
same,glycan array binding signal (z-score),[31],-0.389
same,glycan array binding signal (z-score),[32],-0.379
same,glycan array binding signal (z-score),[33],-0.296
